Test results: PMC7616173 (ACS chemical neuroscience, 2021)
Substitutions are numbered along the chain they refer to. Marks after values point to notes of the source that are not given here.

Tests used:
[1] = biological target: T1, WT M5 mAChR (Homo sapiens, UniProt P08912)
T1 sequence (P08912 1-532): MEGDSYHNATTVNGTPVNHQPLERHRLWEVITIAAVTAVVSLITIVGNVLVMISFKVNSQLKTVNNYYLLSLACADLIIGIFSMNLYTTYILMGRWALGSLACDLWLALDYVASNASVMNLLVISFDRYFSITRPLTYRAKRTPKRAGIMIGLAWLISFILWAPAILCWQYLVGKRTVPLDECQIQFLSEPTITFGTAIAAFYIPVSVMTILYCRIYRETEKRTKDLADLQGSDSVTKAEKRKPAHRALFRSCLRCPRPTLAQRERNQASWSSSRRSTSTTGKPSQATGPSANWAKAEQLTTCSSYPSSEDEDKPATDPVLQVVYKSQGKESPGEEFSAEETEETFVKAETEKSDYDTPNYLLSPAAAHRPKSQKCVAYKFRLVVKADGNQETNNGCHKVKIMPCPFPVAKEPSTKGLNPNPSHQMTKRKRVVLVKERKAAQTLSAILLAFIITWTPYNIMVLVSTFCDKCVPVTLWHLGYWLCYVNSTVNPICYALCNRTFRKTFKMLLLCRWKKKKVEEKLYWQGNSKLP

[2] = biological target: T2, M5−M2 TM1,7,h8 chimera (Homo sapiens, UniProt P08172+P08912); assay: interaction binding between [^3H]-NMS and ACh in the presence of ML375; conditions: M5−M2 TM1,7,h8
[3] = biological target: T2, M5−M2 TM1,7,h8 chimera; assay: IP1 accumulation, interaction of ML375 vs ACh; conditions: M5−M2 TM1,7,h8, CHO cells
[4] = cited from earlier work
[5] = biological target: T3, M5 mAChR EH4 pocket mutant (Homo sapiens, UniProt P08912, A113V/G152A/L156V); assay: interaction binding between [^3H]-NMS and ACh in the presence of ML375; design: expressed in transfected cells; host or cells: Flp-In CHO cells
T3 sequence (P08912 1-532 A113V/G152A/L156V): T1 sequence (P08912 1-532) with A113V, G152A, L156V

[6] = biological target: T4, M5−M2 TM3,4,5 chimera (Homo sapiens, UniProt P08172+P08912); assay: IP1 accumulation, interaction of ML375 vs ACh; conditions: M5−M2 TM3,4,5, CHO cells; N.R. = no response
T4 sequence (P08912 with tags, fused parts or gaps): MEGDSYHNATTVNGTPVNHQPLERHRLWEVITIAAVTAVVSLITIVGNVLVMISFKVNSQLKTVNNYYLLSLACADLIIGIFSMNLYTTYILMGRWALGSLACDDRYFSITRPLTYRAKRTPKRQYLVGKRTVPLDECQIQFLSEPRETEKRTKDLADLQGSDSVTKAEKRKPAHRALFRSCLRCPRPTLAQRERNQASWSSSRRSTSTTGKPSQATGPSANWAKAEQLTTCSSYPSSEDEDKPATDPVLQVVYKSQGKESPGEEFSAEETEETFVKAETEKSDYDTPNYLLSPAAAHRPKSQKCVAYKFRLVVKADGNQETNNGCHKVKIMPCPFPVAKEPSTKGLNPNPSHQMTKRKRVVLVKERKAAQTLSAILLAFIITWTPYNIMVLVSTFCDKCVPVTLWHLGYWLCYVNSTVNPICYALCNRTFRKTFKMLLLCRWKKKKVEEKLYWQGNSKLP
T4 sequence (P08172 93-210): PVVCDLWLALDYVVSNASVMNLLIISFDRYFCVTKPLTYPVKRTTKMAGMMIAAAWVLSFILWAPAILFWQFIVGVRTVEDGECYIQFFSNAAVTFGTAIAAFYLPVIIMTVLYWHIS

O=C(c1ccc(F)c(F)c1)N1CCN2C(=O)c3ccccc3[C@@]12c1ccc(Cl)cc1 [ML375, (S)-9b-(4-Chlorophenyl)-1-(3,4-Difluorobenzoyl)-2,3-Dihydro-1H-Imidazo[2,1-a]Isoindol-5(9bH)-One]
log α (ACh), affinity cooperativity between ACh and ML375 [1]: −1.81 ± 0.02 (12) | log α (ACh), affinity cooperativity between ACh and ML375 [2]: −3 | log α (NMS), affinity cooperativity between [^3H]-NMS and ML375 [2]: 0.23 ± 0.04^k (5) | PKb, IP1 accumulation for the interaction of ML375 vs ACh [3]: 5.77 ± 0.12^k (5) | plasma protein binding [4]: high plasma protein binding | log α (ACh), affinity cooperativity between ACh and ML375 [5]: −0.71 ± 0.2 (4) | log α (NMS), affinity cooperativity between [^3H]-NMS and ML375 [5]: 0.31 ± 0.05 (4) | PKb, IP1 accumulation for the interaction of ML375 vs ACh [6]: N.R.
